# According to the supplement of paper PMC3334620:
# The full ranking holds about 33,000 sequences; the median of “E-score (-0.5 to 0.5)” is about -0.017, and the highest 2% start at about 0.3. The list shows a part of the results.
# Biological target: T1, Sut1 (UniProt P53032)
# T1 sequence: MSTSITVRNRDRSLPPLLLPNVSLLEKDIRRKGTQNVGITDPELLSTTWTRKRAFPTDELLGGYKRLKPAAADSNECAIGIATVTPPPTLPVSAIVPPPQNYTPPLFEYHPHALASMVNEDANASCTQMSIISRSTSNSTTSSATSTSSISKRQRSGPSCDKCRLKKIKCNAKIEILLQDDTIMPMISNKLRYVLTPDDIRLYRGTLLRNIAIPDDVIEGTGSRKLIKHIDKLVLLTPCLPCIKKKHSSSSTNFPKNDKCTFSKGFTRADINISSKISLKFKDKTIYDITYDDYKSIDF
# Experiment: PBM E-score (8-mer binding enrichment) (E-score (-0.5 to 0.5)); higher = stronger / more preferred TF binding; most listed sequences are background and not binding sites
# Details: protein concentration: 200 nM; construct: GST-full length
# In short: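 Yeast transcription factors, full-length or as DNA-binding domains, were expressed with a GST tag using PURExpress in vitro transcription/translation. At about 100-200 nM they were applied to universal all-10-mer Agilent arrays, double-stranded by primer extension on fresh or once-stripped slides. Fluorescent anti-GST detected bound protein, and masliner normalised the scans. E-scores for ungapped eight-base words, pooled with reverse complements, came from the Universal PBM Analysis Suite.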
row,Sequence,PBM E-score
1,GCTTTCCA,-0.0183
2,CGTCCTAA,-0.125
3,CATTTCCC,0.0629
4,ATAATGCC,0.099
5,TACTCTGA,-0.184
6,GCGTGCAC,-0.0829
7,TTCTAAAA,0.214
8,GTTAAAAC,0.194
9,CATAACGG,-0.0262
10,GACCTAGA,0.0551
11,CGCGTTAC,-0.0482
12,CCTGTCAG,-0.15
13,AAGTAGCA,0.0196
14,ATGGAACC,-0.176
15,ACTGCGCC,-0.245
16,AGGATTTC,-0.101
17,ACGGGTCT,-0.152
18,CGAATAGC,-0.0181
19,AAAATACA,0.119
20,CAGTCACC,-0.23
21,GAAGGGCA,-0.131
22,AGACAGGG,-0.293
23,ACAACTTA,-0.00725
24,ATAACAAA,0.286
25,ACCTTGTG,-0.107

row,Sequence,PBM E-score
1,GTCCGTTA,0.376
2,AGCCTGTG,-0.216
3,GACTTTAA,0.179
4,CACTGCCG,-0.052
5,ATCTCTAC,-0.0152
6,CCCCCACG,-0.273
7,GTCATGCA,-0.101
8,ACATCGGA,0.351
9,CTTCCTGC,-0.281
10,CAGTGCTA,-0.0723
11,AAATTAAG,0.124
12,AGTTATTA,0.176
13,CCATGCGG,-0.132
14,CTATAACC,-0.00144
15,AAGGAGAC,-0.103
16,CGCGTTTA,0.0625
17,CGAAGCCG,0.0348
18,ACATGCTA,-0.19
19,CTAATTAC,0.221
20,GGTAATAA,0.188
21,AGAGTCAA,-0.177
22,AGCAATAT,0.0944
23,AGGTAGCA,-0.0341
24,CTTGTGGA,-0.172
25,ATGTACGG,0.165

row,Sequence,PBM E-score
1,CATGGGAA,0.105
2,GATGGTAA,-0.0671
3,AGTTGGCG,-0.0449
4,GATTATCA,0.107
5,GACAGAGA,-0.0478
6,CGACGTCG,0.0408
7,CGAAGTCG,0.0932
8,ACCATAGG,-0.3
9,AATAAAAA,0.273
10,GAGTTAGA,0.0211
11,ACCCATTA,-0.0414
12,GTGCTTGA,-0.138
13,CGAACACG,-0.0386
14,CCCACGCG,-0.175
15,AAGGGGCT,-0.119
16,CAAGTGTG,0.0173
17,GCGTATCC,-0.298
18,CCGATGCG,-0.0426
19,GGCTTGGA,-0.261
20,CGGTACGA,-0.198
21,CTTAAATA,0.0743
22,CGACCCTA,-0.00567
23,AGTCGTAT,0.0684
24,GGTGACCA,-0.0976
25,AATTGCCG,0.083

row,Sequence,PBM E-score
1,ACTCCCCG,0.196
2,GGCGGACA,0.0225
3,GCCAGTTA,-0.0422
4,CTCTAGGC,-0.147
5,CCGGACGG,0.0807
6,CCCTGCTC,-0.0773
7,CTGCGTGC,-0.104
8,GGAGACCA,-0.0203
9,CATATTCA,0.168
10,AGGGTGAA,-0.00902
11,CGGCATGA,0.0325
12,CTTTACCC,-0.0495
13,CGCCCTTA,-0.194
14,CACTGATC,-0.064
15,CCTGAAAC,0.0309
16,AGGCGCAC,-0.0886
17,CGAGTACC,-0.112
18,AATGATAC,0.253
19,CACTTCAA,0.0556
20,TTCTGAAA,0.155
21,ACAACCGG,0.101
22,GACGTCTA,0.0191
23,CATTTGCC,-0.206
24,ATACTGTA,0.14
25,AAACAACT,0.15

row,Sequence,PBM E-score
1,AAAGAGGA,-0.175
2,GTATATCA,0.153
3,GCCGAGCA,-0.305
4,CACCTCCC,-0.382
5,AAATTAGC,0.102
6,CGGTCAGC,-0.2
7,GGAAGGGA,-0.0551
8,ACGGCCGC,-0.139
9,GGAGGTTA,-0.0861
10,AGAAGGGA,-0.302
11,CATATCCC,0.0171
12,CGACTCAC,0.0119
13,AGGGGAAT,-0.0804
14,GGAAGCAC,0.115
15,CTTAGAGA,-0.0381
16,CTAGAGAA,-0.00546
17,TATTGCAA,0.23
18,CGCAAAAG,-0.0335
19,CGTACCTA,-0.151
20,CAAGGCCC,-0.132
21,AGAATCGG,0.0691
22,ACTATATG,0.196
23,TTAGTGAA,0.26
24,CAAAAGAC,-0.072
25,GATGCCCA,0.0574

row,Sequence,PBM E-score
1,GAGGATGC,-0.138
2,AAGCAAGG,-0.116
3,AACCTCAG,-0.0472
4,TACCAGGA,0.1
5,TAAAGTCA,0.0489
6,ATGTAGCA,0.0408
7,CGTGATCC,-0.194
8,CTGGCGCC,-0.192
9,CACCCTAC,-0.161
10,CCCTAAAG,-0.173
11,CGGGGAGA,-0.192
12,CTGAGCTC,0.119
13,CTCGCTCA,-0.131
14,GCATATAA,0.0702
15,CACATTGC,-0.0455
16,ATCGGATA,0.288
17,CTGCCTTA,-0.168
18,ATATCTGG,-0.0354
19,ACTACGAC,0.0112
20,CTTCATTC,-0.139
21,CTCCGCAG,0.364
22,CGTAGAAG,0.143
23,GGTTTGAC,-0.0647
24,ATACGTGG,0.0687
25,TAAATCCA,0.123

row,Sequence,PBM E-score
1,CATACGAA,0.0829
2,CTTCCCGC,-0.171
3,GTCCCCTA,-0.107
4,AGTGAACT,-0.0232
5,GATAAGGC,-0.00083
6,AAAAGGCG,-0.0353
7,CCTAATCC,-0.122
8,AATAAATC,0.157
9,GAGTTGAA,0.18
10,AGAGCGGG,-0.0998
11,CGAAGGCC,-0.0887
12,ACCCATCA,-0.0944
13,AGGGCCCA,-0.111
14,AACTGGCT,-0.151
15,ATCGGTGG,0.00941
16,ATCCGATG,0.146
17,CAGAGCAC,-0.147
18,GATCTGGC,-0.0935
19,GGGGGCAC,-0.356
20,GAATGGGC,-0.0942
21,CGCACGCG,-0.172
22,CCCCTTCC,-0.238
